Assay in all cases: BIACORE
Experiment [1] deals with T1, lymphotoxin-alpha (Genentech, Inc.) (UniProt P01374 35-205, limits assumed).
T1 construct: also called TNF-beta
T1 sequence (looked up): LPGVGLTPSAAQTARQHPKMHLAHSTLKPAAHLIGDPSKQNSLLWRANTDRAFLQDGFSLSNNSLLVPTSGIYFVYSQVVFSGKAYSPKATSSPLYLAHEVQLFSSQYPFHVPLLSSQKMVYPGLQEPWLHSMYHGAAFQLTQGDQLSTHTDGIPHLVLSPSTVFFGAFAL

The target in experiment [2] is T2, soluble poly-histidine-tagged Apo-2 ligand (amino acids 114-281) (UniProt P50591 114-281).
T2 construct: Prepared as in Pitti et al. and WO 97/25428; also called TRAIL; soluble His-tagged Apo-2L; not shown: poly-histidine tag

Experiment [3] deals with T3, TNF-alpha (Genentech, Inc.) (UniProt P01375 partial chain).
T3 construct: also called tumor necrosis factor-alpha

Experiment [4] concerns the target T4, Fas/Apo-1 ligand (Alexis Biochemicals) (UniProt P48023 103-281, limits assumed).
T4 construct: also called Fas ligand; CD95 ligand
T4 sequence (looked up): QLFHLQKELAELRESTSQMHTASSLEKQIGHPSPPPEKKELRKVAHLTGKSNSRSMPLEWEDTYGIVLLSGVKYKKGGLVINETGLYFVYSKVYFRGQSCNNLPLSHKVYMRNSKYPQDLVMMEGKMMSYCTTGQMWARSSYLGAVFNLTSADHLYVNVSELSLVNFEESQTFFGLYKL

T3 sequence (P01375 77-233 limits assumed): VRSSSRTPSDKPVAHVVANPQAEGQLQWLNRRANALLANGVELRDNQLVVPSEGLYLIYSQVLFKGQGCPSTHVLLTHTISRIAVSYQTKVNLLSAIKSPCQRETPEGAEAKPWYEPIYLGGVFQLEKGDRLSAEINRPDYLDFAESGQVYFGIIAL
T2 sequence (P50591 114-281 limits assumed): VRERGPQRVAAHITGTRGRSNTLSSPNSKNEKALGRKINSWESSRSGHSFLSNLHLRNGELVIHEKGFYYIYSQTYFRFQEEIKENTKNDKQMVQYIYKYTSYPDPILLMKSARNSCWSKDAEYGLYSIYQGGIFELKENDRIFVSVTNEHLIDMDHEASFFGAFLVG

B1: Apo-2 ECD-Flag (soluble Apo-2 extracellular domain, amino acid residues 1-184 of FIG. 1, fused to a C-terminal Flag epitope tag) (receptor, not shown: small tags and cut ends)
chain: not shown
notes: Expressed in human 293 cells; Construct is residues 1-184; Residues 183-184 are predicted transmembrane residues kept for flexibility; also called soluble Apo-2 ECD
For B1, the binding result in experiment [1], in experiment [3] and in experiment [4] was “no binding” each time. In addition, the Kd (in general, a measure of binding affinity in units of concentration) in experiment [2] was approximately 1 nM.

Source of the values: patent US20060177456A1 (Genentech, published 2006).
